Experimental data: PubChem BioAssay (NCI)
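Test compounds were applied to cells in 96-well plates for 48 hours at 5 doses. At the GI50, growth is halved. TGI: total growth inhibition.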

test system: NCI-H322M lung; assay: NCI tumour cell line growth inhibition, 48 h

| Structure (SMILES) | GI50 [µM] | TGI [µM] |
| --- | --- | --- |
| COc1ccc(-c2nc(-c3ccccc3)c(-c3ccccc3)n2C2CC2)cc1OC1CCCC1 | > 165 | > 165 |
| COc1cc2cc(C(=O)N3CC(CCl)c4ccc(NCCN)cc43)[nH]c2c(OC)c1OC (stereo unspecified) | – | 3.24 |
| O=C1C=Cc2ccccc2/C1=C/c1[nH]c(=O)[nH]c1O | 11.1 | 44.2 |
| CC(C)/C=N\n1c(N)c(C#N)c(C#N)c1C(C)C | – | > 100 |
| Cn1c(=O)c2[nH]c(CS(=O)(=O)Cc3nc4c([nH]3)c(=O)n(C)c(=O)n4C)nc2n(C)c1=O | – | > 100 |
| COc1ccc2c3ccc4c(c3n(C)c2c1)C(=O)c1ccccc1C4=O | – | > 100 |
| CC1(C)COC(/C=C/C2=NC(C)(C)CO2)=N1 | – | 91.8 |
| C[N+](C)(CCCCCC[N+](C)(C)CCCN1C(=O)c2cc3ccccc3cc2C1=O)CCCN1C(=O)c2ccccc2C1=O | > 37.5 | > 37.5 |
| CCOC(=O)c1nc2ccc(C(F)(F)F)cc2nc1Oc1ccc(F)cc1 | – | > 100 |
| O=C(Nc1nc(C23CC4CC(CC(C4)C2)C3)cs1)c1cc2cc(Br)cc(Br)c2oc1=O | – | > 100 |
| NC1=NC(OCC2(CO)CCC2)C=C(NCC2(CO)CCC2)N1 (stereo unspecified) | – | > 100 |
| CC(=O)Nc1ccc(C2[C@H]3C(=O)N(c4ccc(Cc5ccc(N6C(=O)[C@@H]7ON(c8ccccc8)C(c8ccc(NC(C)=O)cc8)[C@@H]7C6=O)cc5)cc4)C(=O)[C@H]3ON2c2ccccc2)cc1 (stereo partly specified) | – | > 100 |
| Cc1ccccc1N(C)S(=O)(=O)c1ccccc1[N+](=O)[O-] | – | > 100 |
| COc1c(O)ccc2c1CN1CCc3cc4c(cc3C1C2)OCO4 (stereo unspecified) | – | 99.5 |
| O=C(O)CN1CCN(CC(=O)O)CCN(CC(=O)O)CCN(CC(=O)O)CC1 | – | > 100 |
| OC1CC(O)c2c(Cl)sc(Cl)c21 (stereo unspecified) | – | > 100 |
| CCOC(=O)Oc1c(OC)cc(C(=O)O[C@@H]2C[C@@H]3CN4CCc5c([nH]c6cc(OC)ccc56)[C@H]4C[C@@H]3[C@H](C(=O)OC)[C@H]2OC)cc1OC | 18.6 | 71.3 |
| NC1CC(=O)c2cc(Br)sc21 (stereo unspecified) | – | > 100 |
| S=C(Nc1ccc(Cl)cc1)Nc1ccc(Cl)cc1 (tested in a mixture with another compound) | 3.17 | > 100 |
| CNC(=O)c1n[nH][nH]c1=O | – | > 100 |
| Cc1nc2cccc(NCc3ccc(C(=O)NO)cc3)c2c(=O)n1-c1ccccc1 | 2.73 | 13 |
| C=C(CN1CCc2ccccc2C1)c1ccc(C(=O)Nc2ccc(N)cc2)cc1 | 18.7 | 77.7 |
| CC(=O)/C=C/c1ccc(C2CC(C)=Nc3c(ccc4c3C(=O)c3ccccc3C4=O)N2)cc1 (stereo unspecified) | – | > 76.7 |
| COC12C=CC(CC1)C1C(=O)c3c(C)c(C)n(C)c3C(=O)C12 (stereo unspecified) | – | > 100 |
| CC1[C@@H](OCc2ccccc2)COC(=O)N1Cc1ccccc1 (stereo partly specified) | – | > 100 |

| Structure (SMILES) | GI50 [µM] | TGI [µM] |
| --- | --- | --- |
| CC1NC(/C(=C/c2ccccc2O)NC(=O)c2ccccc2)OC1=O (stereo unspecified) | – | > 50 |
| CC1OC(O[C@H]2CC[C@]3(C)[C@H]4CC=C5[C@@H]6[C@@H](C)[C@H](C)CC[C@]6(C(=O)O)CC[C@@]5(C(=O)O)[C@]4(C)CC[C@H]3C2(C)C)C(O)C(O)C1O (stereo partly specified) | – | > 75 |
| CCCCc1c2c(nc3c1CCC/C3=C\c1ccccc1)C(=O)C(CN(C)C)CC2 (stereo unspecified) | – | 25.4 |
| C[C@]12CCC(=O)C(O)=C1CC[C@@H]1[C@@H]2CC[C@]2(C)C(=O)CC[C@@H]12 | – | > 100 |
| CC(c1cccc2ccccc12)/[N+]([O-])=C/c1ccccc1 (stereo unspecified) | – | > 100 |
| COC(=O)C1(O)c2ccccc2N=C2C(=O)c3ccccc3N21 (stereo unspecified) | – | > 100 |
| O=C(C(Br)Br)C(Br)C(Br)c1ccccc1 (stereo unspecified) | 21.1 | 38.3 |
| COc1cc2c(/C=C3/C(=O)Nc4ccccc43)c(Cl)n(Cc3ccccc3[N+](=O)[O-])c2cc1C | 14.9 | 40.5 |
| O=C1C(=O)N(c2ccc(Cl)c(Cl)c2)C(=O)C(=O)C1c1nc2ccccc2o1 | – | > 100 |
| COc1cc(-c2coc3c(OC)c(OC4OC(CO)C(O)C(O)C4O)c(OC)cc3c2=O)cc(OC)c1C (stereo unspecified) | – | 28.8 |
| COc1ccc(SC(C)(SC)c2ccccn2)c(OC)n1 (stereo unspecified) | – | > 100 |
| CC(=O)CCC[C@@H](C)[C@@H]1O[C@H]([C@@]2(C)CCC(=O)O2)C[C@H]2C(CSc3ccccc3)C(=O)O[C@@H]12 (stereo partly specified) | – | > 55.9 |
| Cc1cc(S(=O)(=O)Nc2nnc(-c3ccccc3)c(-c3ccccc3)n2)c(SCc2ccccc2)cc1Cl | 14.1 | 30.9 |
| COC(=O)/C(=C\c1c(C)[nH]c2ccccc12)S(=O)(=O)c1ccccc1 | 8.81 | 28.5 |
| COC(=O)N/N=C/c1oc(-c2cccc([N+](=O)[O-])c2)c(-c2cccc([N+](=O)[O-])c2)c1[N+](=O)[O-] | – | > 100 |
| CC(O)C(O)C(N)CC=O (stereo unspecified) | – | > 500 |
| COc1cccc(-c2cc(=O)c3cc(N)ccc3[nH]2)c1 | – | > 100 |
| COC(=O)CC1C(=O)OCc2c1cc1n(c2=O)Cc2c-1nc1ccccc1c2OC (stereo unspecified) | – | > 100 |
| O=[N+]([O-])C1C2C=CC(C2)[C@H]1c1ccccc1Cl (stereo partly specified) | – | > 100 |
| O=C1CCCc2cc3c(cc21)CCC3C(=O)O (stereo unspecified) | – | > 100 |
| O=C1C(=O)c2ccccc2C(O)=C1C(CCc1ccccc1)C1=C(O)c2ccccc2C(=O)C1=O | – | > 100 |
| CC(=O)N1c2ccccc2Sc2cc(C(O)(C(F)(F)F)C(F)(F)F)ccc21 | – | > 10 |
| O=C(c1ccncc1)n1nc(-c2ccccc2)c(N=Nc2ccc([N+](=O)[O-])cc2)c1-c1ccccc1 | – | > 100 |
| N.N.NC(CS)C(=O)[O-].NC(CS)C(=O)[O-].[Pt+4] (stereo unspecified) | > 50 | > 50 |
